# Results from PubChem BioAssay (NCI).
# Where a structure was tested more than once in an assay, its records may differ in their call.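 Percent growth is the endpoint: 0 to 100 indicates growth inhibition (40 means 60% inhibition), 0 means no net growth, and negative values indicate cell death.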 A number of entries come with more than one value. They are shown here; other results are not. The calls were made as follows: active = growth percent below 10; inactive = the rest. An entry can have further records. This drug was run again and again over the years, at its own concentration, as given; one value stands for one run. Counts like (3×) say how often a value occurs here.
# How the values were obtained:
# Assay in all cases: NCI-60 one-dose screen, 48 h (100 = growth as untreated, 0 = no growth, -100 = all killed)
# CAKI-1 renal = conditions: 2.5 mM
# A498 renal = conditions: 2.5 mM
# CCRF-CEM leukemia = conditions: 2.5 mM; runs of 1991
smiles,measurement,setting,value
O=c1[nH]cc(F)c(=O)[nH]1,growth,CAKI-1 renal; runs of 1997,"active: -8.23, -1.66, -22.6, -28.5, 3.72, -50.2, -41.7, -32.6, -33.4, 5.09, -13.2, -52.9, -38, -6.46, 7.63, 0.231, -8.45, -1.04, -52.4, -31.2, -34.7, -8.33, -21.8, 1.27, -20.9, -28.8, 0.238, -35.6, -13.3, -46.8, 4.41, -7.04, -18, 1.08, -28.2, 4.13, -31.9% and inactive: 19.6, 98.5, 24.2, 10.6, 13.5, 34.4, 16.5, 19.5, 18.1%"
same,growth,CAKI-1 renal; runs of 1998,"active: -37.9, -41.8, -23.9, -56.9, -40.2, -45.7, 1.95, -49, -4.08, -41.9, 2.95, -43.7, -21.2, -18.6, -2.68% and inactive: 30.3, 22.3, 25.2, 15, 11.1, 18.6, 44, 18.4%"
same,growth,CAKI-1 renal; runs of 1999,"inactive: 61.7%, 24.4% and active: 5.04, 0.392, -14, -40, -84.8, -2.38, -64, -75.6, -83.8, 1.73, -3.17, -32.8, -97.5, -100, -90.4%"
same,growth,CAKI-1 renal; runs of 2000,"active: 6.33%, -70.1% (2×), -72.2%"
same,growth,A498 renal; runs of 1991,"inactive: 98.8, 12.1, 16.5, 35.3, 26.9% and active: -1.78, -18.5, -11.2 (2×), -27.5, -25, -6.21, -16.2, -16.5, -34.8, 5.09, -33.5, 3.37, -24.8%"
same,growth,A498 renal; runs of 1992,"active: -0.878, -16.1, 1.19 (2×), -9.81, -33.5, -30, -9.94, 1.21, -22.6, -12.2, -15.7, -2.79, -17.8, 7.57, 4.47, -4.87, -6.6, 3.35, -12.9, -57.3, -22.1, -23.9, -7.19, -3.15, -3.46, -2.22, -2.19, 8.33, -44.7, -0.978, -4.05, -15.1, -31.5, -10.7, -66.6 (2×), -15.6, -1.88, -10.6, -30.2, -12.6, -33.3, -66.7, 0.291, -31.7, -42.4, -47.2 (2×), 0.991, 0, 6.24, -42.1, -56.2, -28.3, -62.2, -55.1, 2.47, -15.5, -4.12 (2×), -6.81, -67.1, -42.7, -57.7, -76.6, -25.3, -31.8, 2.44, -23.1, -32.9, -51.3, -54.7, -55, -20.2, -22.8, -33.1, -36.6, -22.9, -47.1, -70.9, -14.6 (2×), -13.4, -32.4, -44.2, 2.85, 3.34, -17, -34.2, -50.7, -14.5, -19.1% and inactive: 11.2, 21.3, 35.6, 22.2, 50.5, 13.5, 27.8, 64.4%"
same,growth,A498 renal; runs of 1993,"active: -38.5, -62.5, -50.8, -20, -20.3 (2×), -39.1, -9.12, -3.92, -4.01, -14.8, -1.73, -16, -9.25, -47.8, -11.9, -41.4, 2.03, -43.8, 2.8, -29.9, 0.998, -31.3, -0.896, -37.2, -5.39% and inactive: 21.7, 42, 54.9, 14.8, 16.9, 23.4, 34.1%"
same,growth,A498 renal; runs of 1994,"active: -43.8, -16.8, -2.71, -4.9, -48.4, -11.7, -52.6, -3.16, -11.3, -20.6, -26, -47.7, 1.85, -13.1, -62.5 (2×), -0.913, -17.5, -37.4, -8.71, -21, -28.1, 0, -61.1, -56.6, -16.4% and inactive: 20.1%"
same,growth,A498 renal; runs of 1995,"active: -2.61, -38.5, -47.9, -49.4, -64.8, -38.3, -19.7, -29.9, -40.1, -10.4, -32, -48.4, -32.3, -21.8, -34.2, -23, -9.21, -46.1, -31.1, 8.19, -46, -75.7, -60.7, -4, 5.61, -66.5, -22.3, -23.2, -45.5, -64.3, -24.4, -78.7% and inactive: 12.4, 15.7, 13.8, 12.9, 22.6%"
same,growth,A498 renal; runs of 1996,"active: 5.63, -24.3, -40.3, -18.5, -18.7, -16.9, -24.1, -34.9, -58, -61.7, -64.9, 1.78, -14.9, -8.32, 7.29, 5.86, 4.94, 9.14, -30.8 (2×), -12.4, 1.58, -41.3, -36.5, -14.2, -3.67, 8.81, 1.86, -36.8% and inactive: 10.9, 16, 54.4, 35, 38.8, 37.2, 20.4, 19.9, 21.4, 19.4%"
same,growth,A498 renal; runs of 1997,"inactive: 37.5, 10.4, 36.1, 72.7, 47.4, 19, 22.5, 40.7, 44.5, 17.2% and active: -4.13, -100, -23.6, -18.4, -20, -31.4, -24.7, -49.9, -41.1, -7.14, -8.07, -26.2, -39.1, -1.61, -36.8, -52.3, -60.4, -22.3, -68, -48.5, -13.5, -7.72, -56.1, -62.4, -43.6, 6.51, -13.3, -27.3%"
same,growth,A498 renal; runs of 1998,"active: -16.1, -27.9, -2.66, -31.2, -18.3, -18.1, -37.3, -13.3, -8.9, -30.1, -51.2, -31.6, -40.5, -53.8, -81.7, -73.7, -67.2% and inactive: 24.5%, 26.8%"
same,growth,A498 renal; runs of 1999,"inactive: 62.8% and active: -14.1, -38.7, -42.1, -11.3, -100 (2×), -66.6, -33.7, -91, 0.554, -86.7, -61.6, -89, -73.5, -83.6%"
same,growth,A498 renal; runs of 2000,"active: -93.7, -67.8, -68.5, -99.8%"
same,growth,CCRF-CEM leukemia,"inactive: 16.4, 23.4, 19.1, 22.6, 20.3, 23.9, 18.7, 76.7, 19.3, 21.2, 34.5, 23.2, 49.2, 20.6, 15.8, 31, 27.1, 39% and active: -4.34%, 5.91%"
